From ChEMBL document CHEMBL4888484, “Replenishing the malaria drug discovery pipeline: Screening and hit evaluation of the MMV Hit Generation Library 1 (HGL1) against asexual blood stage Plasmodium falciparum ,using a nano luciferase reporter read-out” (2022)
Among all 150,000 compounds or so, about 540 (0.36%) showed an effect of 50% or more. The list shows a part of the results.

test system: Plasmodium falciparum; test: Primary screen in NF54 nanoGlo assay, in single point, at 2uM, 72h; a lower Z score goes with more inhibition; format: functional, Erythrocyte; details: timepoint 72 hour

| Compound | % Inhibition | Z score |
| --- | --- | --- |
| COCC(=O)N1CCc2cc(NC(=O)c3c(-c4ccccn4)noc3C)ccc21 | -12% | 1.83 |
| CO[C@@]12CC[C@@H](O)C[C@@H]1N(C(=O)c1cccc3[nH]c(C)nc13)CC2 | 6% | -1.06 |
| COc1cc([C@H]2CC(=O)Nc3[nH]nc(C)c32)ccc1OCc1ccccc1 | 5% | -0.93 |
| CCN(CC(F)(F)F)C(=O)Nc1cccc(C(N)=O)c1C | -25% | 3.15 |
| CCCN1CCN(C(=O)c2ccc3c(c2)nc2n3CCN(Cc3ccccc3)C2=O)CC1 | -10% | 1.3 |
| O=C(c1ncncc1Cl)N1CCCC2CCCC21 (stereo not given) | 33% | -3.7 |
| C[C@H]1c2ccsc2CCN1C(=O)c1ccc(Cl)c(N2CCCC2=O)c1 | -4% | 0.51 |
| Cc1ccc(S(=O)(=O)NC2CC2)cc1C(=O)N1CCC(C(=O)N2CCC[C@H](C)C2)CC1 | 2% | -0.29 |
| O=C1CC[C@H](C(=O)Nc2cccc(F)c2)C1 | 2% | -0.23 |
| Cc1ocnc1C(=O)Nc1ccc(F)cn1 | -5% | 1.08 |
| CN(C)[C@H]1[C@@H]2CC[C@H]1CN(C(=O)c1cc(C(F)(F)F)ccc1Cl)C2 | -4% | 0.78 |
| CCN(CC)c1ccc(CN(CCOC)C(C)=O)c(OS(=O)(=O)c2ccc(OC)cc2)c1 | -9% | 1.11 |
| O=S(=O)(c1cccnc1N1CC[C@@]2(CCCOC2)C1)N1CCCCC1 | 0% | 0.01 |
| CCC(C)C(C)(O)CNc1ncccc1C(=O)O (stereo not given) | -2% | 0.25 |
| CC1CN(C(=O)Cn2ccnc2C(O)c2ccc(F)cc2)CC(C)O1 (stereo not given) | -4% | 0.73 |
| CCCC1(CNC(=O)CCc2cn[nH]c2)CCC1 | -7% | 1.31 |
| CCN(CC)C(=O)C[C@@H](C(F)F)N1CCOCC1 | -7% | 1.07 |
| CC(C)(C)N(CC(=O)N1CCn2cccc2[C@H]1c1ccccc1Cl)C(=O)c1ccccc1Cl | 0% | -0.03 |
| CCOC[C@H]1CCCN1C(=O)Cc1c(C)[nH]c(=O)[nH]c1=O | 7% | -0.94 |
| CC(C)CC(=O)Nc1ccc(Cl)cn1 | 2% | -0.4 |
| O=C(c1cccnc1-c1ccncc1)N1CCCC1 | -18% | 1.95 |
| Cc1nc(-c2cccs2)sc1C(=O)N1CCOC2CCCC21 (stereo not given) | 0% | 0.05 |

| Compound | % Inhibition | Z score |
| --- | --- | --- |
| O=C(Nc1nccs1)N1CCN2C(=O)NC[C@H]2C1 | -12% | 1.2 |
| C[C@](O)(CNc1nc(C2CC2)nc2c1CCC2)CN1CCOCC1 | -16% | 1.41 |
| Clc1cccc(Cl)c1COc1ccncc1 | -8% | 0.98 |
| Nc1nnc(CC(=O)N2CCO[C@H]3CCCC[C@@H]32)s1 | -1% | 0.23 |
| COc1nc(-c2cccc(C(=O)NCCCn3ccnn3)c2)nn1C | -1% | 0.16 |
| O=C(NCc1cc2ccc(F)cc2[nH]c1=O)c1cnn[nH]1 | -2% | 0.3 |
| CC[C@@H](C(=O)Nc1cc(C)on1)N1CCC(O)CC1 | 0% | -0.06 |
| CC(C)OC(=O)Nc1nn(C)cc1S(=O)(=O)N1CCCC1 | 1% | -0.14 |
| CC(C)CN(C(=O)CN1CCCCC1=O)C1CC1 | -10% | 1.15 |
| O=C(c1ccc2[nH]ccc2c1)N1CC[C@H](N2CCOC2=O)C1 | 4% | -0.68 |
| OCCn1nc(Cc2c(Cl)cccc2Cl)nc1C1CCNCC1 | -6% | 0.78 |
| COc1ccc(Cl)cc1S(=O)(=O)c1cnc(N2CCC(N3CCCCC3)CC2)nc1N | 6% | -0.95 |
| Cc1ccnc(-n2nccc2NC(=O)N[C@H]2CCCOc3cc(F)ccc32)c1 | -15% | 1.49 |
| CCNC(=O)N1CCN(c2nc(C)nc3c2c(C)nn3-c2ccc(C)cc2)CC1 | -18% | 1.92 |
| CC(C)S(=O)(=O)N(C)CC(=O)N(C)Cc1ccc(F)cc1 | -11% | 1.5 |
| COCc1noc(CNC(=O)c2c(C)ncnc2C)n1 | -13% | 2.29 |
| CC(=O)NC1CCC(NCCOc2ccccc2)CC1 (stereo not given) | -11% | 1.19 |
| C=C(C)CN(CC)C(=O)C(=O)Nc1ccc(OC)cc1Cl | -6% | 0.83 |
| O=C(c1nn(Cc2ccccc2)c(=O)c2ccccc12)N1CCC[C@H]1c1ccc2c(c1)OCCO2 | -27% | 3.21 |
| C[C@H](C(=O)N1Cc2cn[nH]c2C(C)(C)C1)C1CC1 | -19% | 2.58 |
| CN(CCN1CCCC1)c1cc(C(=O)N2CCOCC2)ccn1 | 1% | -0.29 |
| O=C(NC[C@H]1COc2ccccc2O1)c1ccc(O)nc1 | -5% | 0.72 |

| Compound | % Inhibition | Z score |
| --- | --- | --- |
| COc1cc2c(cc1OC)C1(CCOCC1)CN(CC[C@@H](c1ccccc1)c1ccccc1O)C2 | -14% | 2.15 |
| CCN(CC(=O)Nc1ccc2c(c1)OCCO2)CC(=O)Nc1ccc2c(c1)OC1(CCCCC1)O2 | -29% | 4.22 |
| O=C(N[C@H]1C[C@@H]2C(=O)N[C@H]3CCN(C(=O)c4ccccc4)[C@@H]3C(=O)N2C1)c1ccc(F)c(Cl)c1 | 24% | -2.66 |
| Cc1nc[nH]c1CN1C[C@H]2CC[C@@H](C1)N(Cc1ccc(CC(C)C)s1)C2 | -3% | 0.53 |
| CCc1n[nH]c(=O)c(-c2nc(C3CCOCC3)cs2)c1CC | -1% | 0.18 |
| O=S(=O)(CCc1noc(-c2ccsc2)n1)c1ccccc1 | -16% | 1.51 |
| COc1ccc(NC(=O)N2CCC[C@@H]2CN2CCCC2)cc1C | -4% | 0.57 |
| CCn1c(-c2cc(NC(=O)c3ccco3)[nH]n2)cc2cc(OC)ccc21 | 2% | -0.35 |
| O=C(NCc1ccccc1)[C@]1(F)CCN(S(=O)(=O)c2cccc(F)c2)C1 | 2% | -0.24 |
| CCCCNCCCOc1ccc(Cl)c(C)c1 | 9% | -1.7 |
| O=C1CCC2(CCN(Cc3ccc(F)cc3)CC2)CN1[C@H]1CC[C@H](O)CC1 | -5% | 0.99 |
| COc1cc2c(cc1OC)CN(C(=O)COc1cccc3c1CCC3=O)CC2 | -8% | 1.04 |
| Cc1ccc(F)cc1NC(=O)NC1CCN(C[C@H]2CCOC2)CC1 | -8% | 1.45 |
| CN(Cc1ccccc1)c1nc2ncn(CC(=O)Nc3ccccc3)c(=O)c2s1 | -9% | 1.27 |
| CCNC(=O)c1c(NC(=O)c2cc(-c3ccc4c(c3)OCCO4)on2)sc2c1CCCC2 | 15% | -1.72 |
| CCNc1cc(CNC(=O)Nc2ccsc2C)ccn1 | -5% | 0.88 |
| CC(C)c1nc(CNC(=O)C[C@H]2C(=O)NCCN2Cc2ccccn2)no1 | 2% | -0.33 |
| Cn1ccnc1CCNC(=O)Cc1csc(-c2cccnc2)n1 | -8% | 0.85 |
| CCn1nc(C)n2cc(S(=O)(=O)N3CCC(Cc4ccccc4)CC3)cc2c1=O | -2% | 0.26 |
| CN1CCN(Cc2cnc(-c3ccccc3)s2)C[C@@H]1CCO | -12% | 1.4 |
| Cn1ccnc1-n1cc(-c2cccc(C(=O)O)c2)cn1 | -9% | 1.38 |
| CCN(CC)C(=O)[C@@H]1CCCN1C(=O)NCc1ccsc1 | -10% | 1.82 |

| Compound | % Inhibition | Z score |
| --- | --- | --- |
| CC(C)(C)CN1CCNC(=O)[C@@H]1CC(=O)NC1CCCCCCC1 | 6% | -0.68 |
| COc1cc(CN2CCS(=O)(=O)C(C)C2C)cc2c1OCCO2 (stereo not given) | -9% | 1.83 |
| COCCn1c(-c2cc3c(C)cccc3[nH]2)nnc1N1CCCC1 | 2% | -0.38 |
| CN(C)C(=O)C1CCN(CC(=O)N[C@H](c2ccccc2)C2CCCCC2)CC1 | -7% | 1.28 |
| Cc1ncnc(OCC2CCN(C(=O)c3ccc(=O)[nH]c3)CC2)c1C | -11% | 1.19 |
| O=C(N[C@@H](Cc1ccccc1)C(=O)O)C1CCCO1 (stereo not given in full) | 2% | -0.29 |
| COC[C@H]1CCCN1[C@@H]1[C@H](O)[C@H](CO)O[C@@H]1CNS(=O)(=O)c1ccccc1 | -3% | 0.52 |
| O=C(c1ccc2nsnc2c1)N1CCC(Oc2cccc3cccnc23)CC1 | -13% | 2.41 |
| CNCC#CCOc1cc(C)cc(C)c1C | -17% | 1.84 |
| CCc1ccc(CN(C)Cc2cscn2)s1 | 3% | -0.67 |
| CC(C)[C@H](Cn1nccn1)NC(=O)CC1CCCC1 | -12% | 1.9 |
| CC(C)c1nnsc1CN1CCC[C@@]2(C1)C(=O)Nc1ccccc12 | 5% | -0.82 |
| CCCc1noc2c1-c1onc(O)c1C(C)(C)C2 | -15% | 2.96 |
| CCc1cccc(NC(=O)Cn2nc(N3CCOCC3)c3ccccc3c2=O)c1 | -8% | 1.47 |
| COc1ccc(CC(=O)Nc2cc(S(=O)(=O)N3CCOCC3)ccc2N2CCOCC2)cc1OC | -4% | 0.61 |
| CCN(C(=O)c1cc(N)ccc1Cl)C(C)C | 6% | -0.81 |
| C[C@@H](CO)NC(=O)c1ccc(S(=O)(=O)N2C[C@H]3CC=CC[C@H]3C2)cc1 | -5% | 0.6 |
| Cn1cc(CCNC(=O)N(Cc2ccsc2)C2CCCC2)cn1 | -4% | 0.75 |
| Cn1c(=O)n([C@H]2CCCN(C(=O)c3cccnc3)C2)c2ncccc21 | -17% | 2.21 |
